System: CT26 tumor cells
Assay: CT26 tumor growth and survival after vaccination (Example 1)
Details: sc injections at days 5, 8, 12, 15, 19, 22, 26; N=10 mice

## poly-ICLC
  tumor burden compared to Group 1 (mice immunized with PBS): no reduction in tumor burden

Source: patent publication US20220378889A1, “NEO-EPITOPE VACCINES AND METHODS OF TREATING CANCER” (Epivax Therapeutics Inc., priority 2019, published 2022)
